Laboratory results as given in PubChem BioAssay AID493208 (National Center for Advancing Translational Sciences (NCATS), 2011).
Out of some 44,000 compounds screened, about 340 (0.77%) were called active. About 5% were inconclusive and are not listed. The call rests on the fitted dose curve; in most records, active means well fitted inhibition curve with a large enough effect; inconclusive means small, poorly fitted or top-dose-only effect; inactive means flat fitted curve, though single readings scatter. Some of the results follow.

Assay: Acumen qHTS Assay for Inhibitors of the mTORC1 Signaling Pathway in MEF (Tsc2-/-, p53-/-) Cells: Sytravon;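 further: plate controls were DMSO for no effect and rapamycin for full effect; nearly all actives have a fitted effect of over 50% in size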
Conditions: phospho-rpS6 immunofluorescence/PI, 24 h; series mostly up to 38.3 µM; activity change, negative = inhibition: at the top concentration
How it was run: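 Immunofluorescence of rpS6 phosphorylation in Tsc2-/-, p53-/- MEFs after 24 h compound exposure, normalized to propidium iodide signal. Activity is expressed as % positive cells, thresholded with 7.5 nM rapamycin.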

Activity change, negative = inhibition, inactive:
O=C(COc1ccccc1)Nc1c(Cl)ccc2nsnc12 -0.78%
COC(=O)CC1Oc2ccc(Cl)cc2-n2cc(-c3ccc(F)cc3)nc21 (stereo not drawn) -16%
Cc1ccc(C)c(N(C)S(=O)(=O)c2ccc3[nH]cc(C(=O)NC4CCCC4)c(=O)c3c2)c1 3.29%
CCN1CCN(C(=O)c2c(C)nn(-c3ccc(F)cc3)c2-n2cccc2)CC1 3.64%
CC(C)(C)NC(=O)CCSc1nc(-c2ccc3c(c2)OCO3)cc(C(F)(F)F)n1 8.97%
CCOC(=O)c1cccc(NC(=O)c2nn(-c3ccc(OC)cc3)c(=O)c3c2c2ccccc2n3C)c1 1.01%
CN(Cc1ccccc1)c1ccc(-c2nc(-c3cccnc3)no2)cc1[N+](=O)[O-] 4.16%
CCN(Cc1ccccc1)S(=O)(=O)c1ccc2[nH]c3c(c2c1)CCCCC3 -7.52%
Cc1cc(-c2nc3ncccc3o2)ccc1NC(=O)COc1cc(C)c(Cl)c(C)c1 0.862%
CCC(C(=O)NCCc1cc(OC)ccc1OC)n1nc(C)c2sc3ccccc3c2c1=O (stereo not drawn) -14.9%
CN(C)c1ccc(CNC(=O)c2cccn2-c2nnc(N3CCCCC3)s2)cc1 -6.4%
CCOC(=O)c1cnc2nc(NCc3ccc(OCC)cc3)[nH]n2c1=O -1.21%
Cc1ccc(C)c(NC(=O)CSc2nc(-c3ccccc3Cl)nc3c2Cc2c(CO)cnc(C)c2O3)c1 -1.5%
CCCCOc1ccc(C(=O)NCCc2csc(-c3ccc(OC)cc3)n2)cc1 -21%
O=C(NCc1ccc(F)cc1)C(=O)NCC(c1cccs1)S(=O)(=O)c1cccs1 (stereo not drawn) -0.381%
COc1ccccc1CNC(=O)c1ccc2c(c1)N(Cc1ccc(C)cc1)CCS2 -1.84%
CCc1ccccc1NC(=O)CN1C(=O)COc2ccc(S(=O)(=O)N3CCCCCC3)cc21 -4.01%
CCN(CC)S(=O)(=O)c1ccc2c(c1)N(CC(=O)NCC(C)c1ccccc1)C(=O)CO2 (stereo not drawn) -3.53%
CCn1cc(C(=O)N2CCN(c3ccccc3OC)CC2)c(=O)c2cc(S(=O)(=O)N3CCC(C)CC3)ccc21 3.36%
CC(C)Oc1ccc(CNC(=O)c2ccccc2NC(=O)c2nsc3ccccc23)cc1 12%
Cc1ccc(NC(=O)CSc2nc3ccc(NC(=O)CCc4ccccc4)cc3s2)c(C)c1 0.282%
CCN(CC)C(=O)C1=CC(c2ccc3c(c2)OCO3)=NS(=O)(=O)N1C 3.85%
O=C(CCCCn1c(=O)c2ccccc2n(Cc2ccccc2F)c1=O)NCc1ccccc1Cl -3.99%
O=S(=O)(NCCc1nnc2ccc(SCc3c(F)cccc3Cl)nn12)c1ccccc1 3.01%
Cc1oc(-c2ccccc2F)nc1CSCC(=O)NCCc1ccccc1 2.26%
CCC(Oc1ccccc1)C(=O)Nc1ccc(OCc2cc(=O)n3ccc(C)cc3n2)cc1 (stereo not drawn) 3.22%
CC(C)CCNC(=O)c1cc(Sc2ccc(F)cc2F)nc2ccccc12 2.31%
COc1ccc(N2C(=O)CS(=O)(=O)C23C(=O)N(Cc2c(F)cccc2Cl)c2ccccc23)cc1 (stereo not drawn) -4.61%
COc1ccc(NC(=O)C2=C(C)Nc3ncnn3C2c2ccccn2)cc1 (stereo not drawn) -0.701%
CCCCn1cc(S(=O)(=O)c2ccccc2)c(=O)c2cc(F)c(N3CCC(C)CC3)cc21 -0.184%
CCOC(=O)c1cnc2c(C)cc(C)cc2c1Nc1ccc(OCc2ccccc2)cc1 12.8%
O=C(CN1CCN(CC(=O)Nc2ccccc2F)CC1)Nc1ccc(Cl)c(C(F)(F)F)c1 -11.2%
CCOC(=O)C1=C(C(F)(F)F)Nc2ncnn2C1c1cccc(OC)c1OC (stereo not drawn) 0.758%
CC1=C(c2ccc(C)c(C)c2)S(=O)(=O)N=C1N1CCC(C(=O)N2CCCCC2)CC1 0.696%
CCOc1ccc(CNC(=O)CCc2cn(CC)c3ccccc23)cc1 -4.62%
CCc1ccc(NC(=O)C2CCN(S(=O)(=O)c3c(C)noc3/C=C\c3ccc(OC)cc3)CC2)cc1 -11.9%
COc1cc(C(=O)Nc2ccc(OCc3cc(=O)n4cccc(C)c4n3)cc2)cc(OC)c1OC -21%
O=C(NCCc1ccccc1)c1ccc(CSc2nc3ccncc3n2Cc2cccc(F)c2)cc1 -4.19%
CCN(CC)C(=O)c1sc2c(c1C)c(=O)n(CCc1ccccc1)c(=O)n2Cc1cccc(Cl)c1 -0.315%
COc1ccc(-n2nc(C(=O)NCc3ccc(F)cc3)c3c4ccccc4n(C)c3c2=O)cc1 3.57%
O=C(c1cnc(N2CCOCC2)c2ccccc12)N1CCN(c2ccccc2F)CC1 -18.9%
CN(C)c1ccc(CNC(=O)c2ccc3c(c2)N(C)C(=O)C2CCCCN32)cc1 (stereo not drawn) 0.0904%
CCOc1ccccc1N1CC(c2nc3ccccc3n2CCCCOc2cc(C)ccc2C)CC1=O (stereo not drawn) -10.6%
COc1cc(NC(=O)CSc2ccc(-c3sc(-c4ccccc4)nc3C)nn2)cc(OC)c1 -5.94%
CCCc1cc(=O)[nH]c2nnc(SCCC(C)C)n12 -1.01%
COC(=O)c1c(NC(=O)COc2ccc(OC)cc2)sc2c1CCC(C)C2 (stereo not drawn) 3.87%
Cc1cc(C)cc(OCCSc2nc(-c3ccc(C(C)(C)C)cc3)nc3cc(=O)[nH]n23)c1 0.0619%
CC(C)Oc1ccc(CNC(=O)C2CCCN(S(=O)(=O)c3ccc4c(ccn4C)c3)C2)cc1 (stereo not drawn) -3.7%
